Values joined by “and” are separate entries in the source; they are usually repeats but may differ in a detail not shown here. Identical values can stand only once. Inconclusive results, whose numbers are uncertain, are shown with a selection of clear calls. Where the call is inconclusive, the potency comes from a doubtful curve fit. More than one record can exist for a structure, and the calls need not agree. Active and inactive are the calls of the source. Unless noted, calls come from the whole dose curve; as a rule, active = well fitted activation curve with a large enough effect in the repeat runs; inconclusive = weak or mixed curves, or effect the other way; inactive = no such curve, though single readings can be large or run the other way.
What follows are compounds tested against Estrogen receptor (Homo sapiens) (UniProt P03372) (assay: qHTS assay to identify small molecule agonists of the estrogen receptor alpha (ER-alpha) signaling pathway (AID 743075; calls by dose curve;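 note: HEK293 GripTite cells with ER-alpha and UAS-driven beta-lactamase reporter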)). Conditions: HEK293 ER-alpha-UAS-bla, beta-lactamase FRET ratio, 18 h; series mostly up to 70.1 µM; activation: at the top concentration.
Chain of UniProt P03372 (P03372 whole entry, looked up): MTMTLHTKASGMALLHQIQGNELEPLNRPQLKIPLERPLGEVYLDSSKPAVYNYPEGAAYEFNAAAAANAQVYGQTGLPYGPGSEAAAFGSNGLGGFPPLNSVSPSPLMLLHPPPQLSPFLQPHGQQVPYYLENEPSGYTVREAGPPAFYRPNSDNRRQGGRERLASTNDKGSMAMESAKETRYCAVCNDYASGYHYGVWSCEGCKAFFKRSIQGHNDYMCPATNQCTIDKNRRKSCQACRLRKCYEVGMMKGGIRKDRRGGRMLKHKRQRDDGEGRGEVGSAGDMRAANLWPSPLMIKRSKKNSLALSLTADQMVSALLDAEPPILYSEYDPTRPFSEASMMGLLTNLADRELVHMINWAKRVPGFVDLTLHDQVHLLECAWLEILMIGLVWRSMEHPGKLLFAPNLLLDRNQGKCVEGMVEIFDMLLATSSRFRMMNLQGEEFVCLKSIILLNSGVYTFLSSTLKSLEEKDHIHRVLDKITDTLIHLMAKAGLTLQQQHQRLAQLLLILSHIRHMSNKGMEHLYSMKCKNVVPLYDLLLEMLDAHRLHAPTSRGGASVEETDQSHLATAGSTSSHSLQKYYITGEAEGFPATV
% is set by controls: 0 for no effect and ±100 for the full control effect; potency is the fitted concentration of half-maximal effect; tags give direction and shape of the fitted curve or compound fluorescence and quenching.

Structure (SMILES) | Potency | activation
O=Cc1ccccc1C=O | active: 23.9 µM [activator] | –
N=C1C=CC(=C(c2ccc(N)cc2)c2ccc(N)cc2)C=C1 | inconclusive: 54.9 µM | –
C[C@H](CCC(=O)O)[C@H]1CC[C@H]2[C@@H]3CC[C@@H]4C[C@H](O)CC[C@]4(C)[C@H]3CC[C@]12C | inconclusive: 61.7 µM | –
C=C(C)C(=O)OCC(O)COc1ccc(C(C)(C)c2ccc(OCC(O)COC(=O)C(=C)C)cc2)cc1 (configuration not stated) | – | inactive: 9.85%

What follows are compounds tested against Estrogen receptor (Homo sapiens) (UniProt P03372) (assay: qHTS assay to identify small molecule agonists of the estrogen receptor alpha (ER-alpha) signaling pathway using the BG1 cell line (AID 743079; note: nearly all actives have a fitted effect of over 20% in size)). Conditions: BG1Luc4E2 cells, ERE-luciferase agonist, 22 h; activation: at 70.3 µM (top of the series) unless noted.

Structure (SMILES) | Potency | activation
CCCCCCCCCCCCCC[N+](C)(C)C | inconclusive: 23.7 µM [inhibitor, partial curve] and inconclusive: 14.8 µM [inhibitor, partial curve] and inconclusive: 17.2 µM [inhibitor, partial curve] | –
CN(C)c1ccc(N=Nc2ccccc2C(=O)O)cc1 | inconclusive: 68.6 µM [inhibitor] | –
c1cc(C(c2ccc(OCC3CO3)cc2)c2ccc(OCC3CO3)cc2)ccc1OCC1CO1 (configuration not stated) | inconclusive: 61.1 µM [inhibitor, single point] | –
O=C(O)CCCCCCCCCCC(=O)O | inactive and active: 61.1 µM | –
CC1(C)CCC(C)(C)c2cc(C(=O)Nc3ccc(C(=O)O)cc3)ccc21 | inconclusive: 0.0273 µM [inhibitor, full curve, poor fit] | –
O=Cc1ccccc1C=O | active: 21.1 µM and active: 30.6 µM | –
N=C1C=CC(=C(c2ccc(N)cc2)c2ccc(N)cc2)C=C1 | inconclusive: 13.7 µM [inhibitor, partial curve] | –
CCCC(=O)OC[C@@H](OC(=O)CCC)[C@@H](OC(=O)CCC)[C@H](Cn1c2nc(=O)[nH]c(=O)c-2nc2cc(C)c(C)cc21)OC(=O)CCC | inconclusive: 26.6 µM [inhibitor, partial curve] | –
C=C[C@](C)(O)CC[C@@H]1[C@@]2(C)CCCC(C)(C)[C@@H]2CC[C@@]1(C)O | – | inconclusive: -19.1% [phenotype inactive]
COC1=C(OC)C(=O)C(CCCCCCCCCCO)=C(C)C1=O | inconclusive: 29.8 µM [inhibitor] | –
C[C@H](CCC(=O)O)[C@H]1CC[C@H]2[C@@H]3CC[C@@H]4C[C@H](O)CC[C@]4(C)[C@H]3CC[C@]12C | inactive | –
CC(C)(O)c1ccccc1CC[C@@H](SCC1(CC(=O)O)CC1)c1cccc(/C=C/c2ccc3ccc(Cl)cc3n2)c1 | – | inconclusive: 4.86% [phenotype inactive]
CN(C)c1ccc2nc3ccc(=[N+](C)C)cc-3sc2c1 | inconclusive: 7.5 µM [inhibitor, full curve] and inconclusive: 18.6 µM [inhibitor, partial curve] and inconclusive: 21.7 µM [inhibitor, full curve] | –
CC(C)(C)c1cc(O)c(C(C)(C)C)cc1O | inconclusive: 61.1 µM [inhibitor, partial curve] | –
COC(=O)C1=C(C)NC(C)=C(C(=O)OCCN(C)Cc2ccccc2)C1c1cccc([N+](=O)[O-])c1 (configuration not stated) | inconclusive: 29.8 µM [inhibitor, partial curve] and inconclusive: 68.2 µM [inhibitor, single point] | –
C=C(C)C(=O)OCC(O)COc1ccc(C(C)(C)c2ccc(OCC(O)COC(=O)C(=C)C)cc2)cc1 (configuration not stated) | inconclusive: 48.6 µM [inhibitor, partial curve] | –
CCc1oc2ccccc2c1C(=O)c1cc(I)c(O)c(I)c1 | inconclusive: 26.6 µM [inhibitor, partial curve] | –
O=C1NCCN1CCN1CCC(c2cn(-c3ccc(F)cc3)c3ccc(Cl)cc23)CC1 | inconclusive: 29.8 µM [inhibitor, partial curve, poor fit] and inconclusive: 21.1 µM [inhibitor, partial curve, poor fit] | –

Source: PubChem BioAssay (Tox21)
